Measurements taken from patent US12662541B2, “Antibody-drug conjugates against the receptor tyrosine kinase EphA5” (Rutgers, The State University of New Jersey, priority 2021, dated 2026).

Tests used:
rhEphA5 antigen [1] = biological target: T1, rhEphA5 antigen (Homo sapiens, UniProt P54756); experiment: ka (1/Ms)
T1 construct: purchased R and D systems 3036-A5
Protocol: (§1) Table printed on a drawing sheet, FIG. 13
(§2) Head of the field: ka (1/Ms)
(§3) The patent's description of the figure: FIG. 13 is a table illustrating the single cycle kinetic parameters of chimeric (VH0/VK0) and humanized 11C12 variants (tested as cell culture supernatants) binding to rhEphA5 antigen as determined using the Biacore T200. The relative KD was calculated by dividing the KD of the humanized variant by that of the VH0/VK0 (top row) assayed in the same experiment. The variants marked with ‘*’ have KD values that are within two-fold of, or are better than, the chimeric antibody. The chimeric and selected variants marked in ‘#’ were identified as the main leads for purification. […]
(§4) Where the first naming reader finds the target: description_of_the_figure: humanized 11C12 variants (tested as cell culture supernatants) binding to rhEphA5 antigen as determined using the Biacore T200

EphA5 antigen [2] = biological target: T2, EphA5 antigen (Homo sapiens, UniProt P54756); experiment: ka (1/Ms)
T2 construct: purchased R and D systems 3036-A5
Protocol: (§5) Table printed on a drawing sheet, FIG. 19
as §2
(§6) The patent's description of the figure: FIG. 19 is a table illustrating the Multi-cycle kinetic parameters of chimeric (VH0/VK0) and humanized variants (tested as purified proteins) binding to EphA5 antigen as determined using the Biacore T200. The relative KD was calculated by dividing the KD of the humanized variant by that of the VH0VK0 (first row) assayed in the same experiment. […]
(§7) Where the first naming reader finds the target: description_of_the_figure: humanized variants (tested as purified proteins) binding to EphA5 antigen as determined using the Biacore T200

[3] = system: H460, A549 and H1299 human lung carcinoma cells; experiment: Incucyte Human Fabfluor-pH Red antibody internalization; type: cell-based; conditions: naked mAb, real-time live cell imaging
Protocol: In vitro studies were conducted in which three different Eph5A-expressing target cell lines were incubated with various concentrations of VH5Vk3 or VH4Vk3 antibodies after which internalization of bound antibody was calculated. Antibody internalization was performed with the Incucyte® Human Fabfluor-pH Red Antibody Labeling Dye and the naked VH4Vk3 (FIG. 66) and VH5Vk3 (FIG. 67) human monoclonal antibodies in the following cell lines: H460 human lung carcinoma, A549 human lung carcinoma and H1299 human lung carcinoma. These cell lines express variable levels of EphA5 on the cell surface: H460 (+++)>A549 (++)=H1299 (++). Internalization was visualized and quantified using real-time live cell imaging analysis. The Fabfluor-pH Red Antibody Labeling Dye is sensitive to pH and only emits fluorescence once inside lysosomes in low pH conditions.

[4] = system: 6,000 human membrane protein clones; experiment: Membrane Proteome Array (MPA) specificity screen; type: binding; conditions: 20 μg/ml antibody, HEK-293T
Protocol: To optimize conditions for test antibody detection, HEK-293T cells and QT6 cells were transfected with plasmids encoding known test antibody targets, Protein A (binds antibody Fc; positive control), or vector alone (pUC; negative control) in 384-well cell-culture plates. After incubation, four four-fold dilutions starting at 20 μg/ml of each test antibody were added in quadruplicate to transfected cells and detected using a single dilution of secondary antibody in a high-throughput immunofluorescence flow cytometry assay. Data from assay setup experiments were used to determine the optimal screening conditions for high-throughput immunodetection (Table E4). Optimal screening concentrations were determined by the background signal (mean fluorescence intensity (MFI)), and false positive rate in the vector control.
Membrane Proteome Array: Membrane Proteome Array (MPA) screening was conducted at Integral Molecular. The MPA is a protein library composed of 6,000 human membrane protein clones, each overexpressed in live cells from expression plasmids. […] Before screening on the MPA, the test antibody concentration for screening was determined on cells expressing positive (membrane-tethered Protein A) and negative (mock-transfected) binding controls, followed by detection by flow cytometry using a fluorescently-labeled secondary antibody. […]

EphA5 antigen [5] = biological target: T2, EphA5 antigen; experiment: kd (1/s)
Protocol: as §5
(§8) Head of the field: kd (1/s)
as §6, §7

[6] = Thermal ramp stability (UNcle biostability platform, Sypro Orange and SLS); type: physicochemical
Source text: Thermal ramp stability experiments (Tm and Tagg) are well established methods for ranking proteins and formulations for stability. A protein's denaturation profile provides information about its thermal stability and represents a structural ‘fingerprint’ for assessing structural and formulation buffer modifications. A widely used measure of the thermal structural stability of a protein is the temperature at which it unfolds from the native state to a denatured state. For many proteins, this unfolding process occurs over a narrow temperature range and the mid-point of this transition is termed ‘melting temperature’ or ‘Tm’. To determine the melting temperature of a protein, UNcle measures the fluorescence of Sypro Orange (which binds to exposed hydrophobic regions of proteins) as the protein undergoes conformational changes.
Samples for each variant were formulated in PBS and Sypro Orange at a final concentration of 1 mg/mL. […] Samples were subjected to a thermal ramp from 25-95° C., with a ramp rate of 0.3° C./minute and excitation at 473 nm. Full emission spectra were collected from 250-720 nm, and the area under the curve between 510-680 nm was used to calculate the inflection points of the transition curves (Tonset and Tm). Monitoring of static light scattering (SLS) at 473 nm allowed the detection of protein aggregation, and Tagg (onset of aggregation) was calculated from the resulting SLS profiles. Thermal stability values determined lie in a broad range from 57.9 to 69.6° C. (Tm1), 55.1 to 65.2° C. (Tonset) and 65.6 to 70.2° C. (Tagg) with the humanized leads generally showing improved profiles when compared to the chimeric antibody. […] All humanized antibodies appear to have a higher Tm1, Tonset and Tagg compared to the chimeric antibody.

rhEphA5 antigen [7] = biological target: T1, rhEphA5 antigen; experiment: kd (1/s)
Protocol: as §1, §8, §3, §4

T2 sequence (P54756 25-1037 limits assumed): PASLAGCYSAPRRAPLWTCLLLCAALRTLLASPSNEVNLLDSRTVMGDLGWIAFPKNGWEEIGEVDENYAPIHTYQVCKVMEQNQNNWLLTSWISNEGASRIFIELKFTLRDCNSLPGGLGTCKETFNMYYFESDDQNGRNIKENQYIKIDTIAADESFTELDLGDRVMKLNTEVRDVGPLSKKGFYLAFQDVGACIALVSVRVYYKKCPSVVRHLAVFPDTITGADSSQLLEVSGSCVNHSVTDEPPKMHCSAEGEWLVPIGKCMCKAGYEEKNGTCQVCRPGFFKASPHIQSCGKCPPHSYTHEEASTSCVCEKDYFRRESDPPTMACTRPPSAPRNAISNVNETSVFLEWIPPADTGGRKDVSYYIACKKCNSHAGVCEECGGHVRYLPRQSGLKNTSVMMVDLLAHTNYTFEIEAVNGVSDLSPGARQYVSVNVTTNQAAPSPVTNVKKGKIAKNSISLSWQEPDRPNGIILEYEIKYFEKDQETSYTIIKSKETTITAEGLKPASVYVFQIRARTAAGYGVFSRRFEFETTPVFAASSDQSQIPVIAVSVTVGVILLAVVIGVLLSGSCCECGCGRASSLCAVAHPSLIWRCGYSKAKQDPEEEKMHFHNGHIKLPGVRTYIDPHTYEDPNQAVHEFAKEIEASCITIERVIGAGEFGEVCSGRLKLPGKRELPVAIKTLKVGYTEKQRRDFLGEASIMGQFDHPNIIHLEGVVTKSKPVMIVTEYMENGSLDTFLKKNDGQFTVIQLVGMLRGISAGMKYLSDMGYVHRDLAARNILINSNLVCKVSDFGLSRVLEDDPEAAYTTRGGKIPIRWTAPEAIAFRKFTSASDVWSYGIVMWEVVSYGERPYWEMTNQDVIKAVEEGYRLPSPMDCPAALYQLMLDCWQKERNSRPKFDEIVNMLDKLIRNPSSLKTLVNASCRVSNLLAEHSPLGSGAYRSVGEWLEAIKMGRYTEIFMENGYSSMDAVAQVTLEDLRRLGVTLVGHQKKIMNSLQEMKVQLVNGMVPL
T1 sequence (P54756 25-1037 limits assumed): as above

B1: VH4/VK3: humanized anti-EphA5 IgG1/kappa antibody, heavy chain SEQ ID NO:38, light chain SEQ ID NO:40 (antibody)
heavy: EVQLVESGGGLVQPGGSLKLSCAASGFTFSTFGIHWVRQAPGKGLEWVAYISGASTTIYYADTVKGRFTISRDNSKNTLYLQMNSLRAEDTAVYYCARYGTSFPYGLDYWGQGTLVTVSSASTKGPSVFPLAPSSKSTSGGTAALGCLVKDYFPEPVTVSWNSGALTSGVHTFPAVLQSSGLYSLSSVVTVPSSSLGTQTYICNVNHKPSNTKVDKRV[letters of human IgG1 Fc left out]
light: DIVMTQSPDSLAVSLGERATINCKASQSVDYDGDSYMNWYQQKPGKAPKLLIYGASNLESGIPDRFSGSGSGTDFTLTISRLEPEDAAVYYCQQSNEDPFTFGQGTKLEIKRTVAAPSVFIFPPSDEQLKSGTASVVCLLNNFYPREAKVQWKVDNALQSGNSQESVTEQDSKDSTYSLSSTLTLSKADYEKHKVYACEVTHQGLSSPVTKSFNRGEC
ka (rhEphA5 antigen [1]): 1.31e-06 M⁻¹ s⁻¹ | ka (EphA5 antigen [2]): 1.49e-06 M⁻¹ s⁻¹ | internalization and lysosomal trafficking [3]: confirmed receptor-mediated internalization and trafficking of both human monoclonal antibodies through the lysosomal compartment | Identified membrane protein targets, Target gene (HGNC) [4]: EPHA5 | kd (EphA5 antigen [5]): 0.00139 s⁻¹ | Tagg ranking among the leads (SLS profiles) [6]: highest Tagg values | kd (rhEphA5 antigen [7]): 0.00137 s⁻¹
